From EPA's CvTdb concentration-time database
This continues a long series; more values of the same kind are listed elsewhere.

Experiments:
Assay in all cases: concentration in plasma after dosing
Rat [1] = conditions: dosed: Perfluorodecanoic acid, 20 mg/kg, oral, Female, Harlan Sprague Dawley
Rat [2] = conditions: dosed: Perfluorodecanoic acid, 10 mg/kg, oral, Male, Harlan Sprague Dawley
Rat [3] = conditions: 1 h; dosed: Perfluorodecanoic acid; 10 mg/kg; oral; Male; Harlan Sprague Dawley
Rat [4] = conditions: dosed: Perfluorodecanoic acid, 20 mg/kg, oral, Female, Harlan Sprague Dawley; remark: listed apart in the source
Rat [5] = conditions: dosed: Perfluorodecanoic acid, 10 mg/kg, oral, Male, Harlan Sprague Dawley; remark: listed apart in the source
Rat [6] = conditions: dosed: Perfluorodecanoic acid, 2 mg/kg, oral, Male, Harlan Sprague Dawley
Rat [7] = conditions: dosed: Perfluorodecanoic acid, 2 mg/kg, oral, Male, Harlan Sprague Dawley; remark: listed apart in the source
Rat [8] = conditions: 1848 h; dosed: Perfluorooctane Sulfonate; 20 mg/kg; oral; Female; F344
Rat [9] = conditions: 864 h; dosed: Perfluorooctane Sulfonate; 2 mg/kg; oral; Female; Harlan Sprague Dawley
Rat [10] = conditions: 24 h; dosed: Perfluorooctane Sulfonate; 2 mg/kg; oral; Female; Harlan Sprague Dawley
Rat [11] = conditions: 1848 h; dosed: Perfluorooctane Sulfonate; 20 mg/kg; oral; Male; Harlan Sprague Dawley
Rat [12] = conditions: dosed: Fluorotelomer alcohol 8+2, 48 mg/kg, oral, Male, Harlan Sprague Dawley
Rat [13] = conditions: 48 h; dosed: Fluorotelomer alcohol 8+2; 40 mg/kg; oral; Female; Harlan Sprague Dawley
Rat [14] = conditions: dosed: Fluorotelomer alcohol 8+2, 160 mg/kg, oral, Female, Harlan Sprague Dawley
Rat [15] = conditions: 3 h; dosed: Perfluorooctanoic acid; 80 mg/kg; oral; Female; Harlan Sprague Dawley
Rat [16] = conditions: dosed: Perfluorooctanoic acid, 6 mg/kg, oral, Male, Harlan Sprague Dawley
Rat [17] = conditions: 1 h; dosed: Perfluorooctanoic acid; 12 mg/kg; oral; Male; Harlan Sprague Dawley
Rat [18] = conditions: 3 h; dosed: Perfluorooctanoic acid; 80 mg/kg; oral; Female; Harlan Sprague Dawley; remark: listed apart in the source
Rat [19] = conditions: 6 h; dosed: Perfluorooctanoic acid; 12 mg/kg; oral; Male; Harlan Sprague Dawley
Rat [20] = conditions: dosed: Fluorotelomer alcohol 8+2, 160 mg/kg, oral, Female, Harlan Sprague Dawley; remark: listed apart in the source
Rat [21] = conditions: dosed: Fluorotelomer alcohol 8+2, 160 mg/kg, oral, Female, Harlan Sprague Dawley; remark: listed apart in the source
Rat [22] = conditions: dosed: Perfluorooctanoic acid, 48 mg/kg, oral, Male, Harlan Sprague Dawley
Rat [23] = conditions: dosed: Perfluorooctanoic acid, 320 mg/kg, oral, Female, Harlan Sprague Dawley
Rat [24] = conditions: dosed: Fluorotelomer alcohol 8+2, 160 mg/kg, oral, Female, Harlan Sprague Dawley; remark: listed apart in the source
Rat [25] = conditions: dosed: Fluorotelomer alcohol 8+2, 24 mg/kg, oral, Male, Harlan Sprague Dawley
Rat [26] = conditions: dosed: Perfluorooctanoic acid, 320 mg/kg, oral, Female, Harlan Sprague Dawley; remark: listed apart in the source
Rat [27] = conditions: dosed: Fluorotelomer alcohol 8+2, 80 mg/kg, oral, Female, Harlan Sprague Dawley
Rat [28] = conditions: dosed: Perfluorooctanoic acid, 320 mg/kg, oral, Female, Harlan Sprague Dawley; remark: listed apart in the source
Rat [29] = conditions: dosed: Fluorotelomer alcohol 8+2, 12 mg/kg, oral, Male, Harlan Sprague Dawley
Rat [30] = conditions: dosed: Perfluorooctanoic acid, 40 mg/kg, iv, Male, F344
Rat [31] = conditions: dosed: Fluorotelomer alcohol 8+2, 48 mg/kg, oral, Male, Harlan Sprague Dawley; remark: listed apart in the source
Rat [32] = conditions: dosed: Perfluorooctanoic acid, 6 mg/kg, iv, Male, F344

O=C(O)C(F)(F)C(F)(F)C(F)(F)C(F)(F)C(F)(F)C(F)(F)C(F)(F)C(F)(F)C(F)(F)F [Perfluorodecanoic acid]
concentration in plasma (Rat [1]; 6 h): 88700 ng/mL | concentration in plasma (Rat [1]; 864 h): 27100 ng/mL | concentration in plasma (Rat [2]; 0.5 h): 5280 ng/mL | concentration in plasma (Rat [2]; 192 h): 25700 ng/mL | concentration in plasma (Rat [2]; 1848 h): 6300 ng/mL | concentration in plasma (Rat [3]): 20900 ng/mL | concentration in plasma (Rat [4]; 1 h): 68500 ng/mL | concentration in plasma (Rat [4]; 192 h): 127000 ng/mL | concentration in plasma (Rat [4]; 2520 h): 12300 ng/mL | concentration in plasma (Rat [5]; 6 h): 44500 ng/mL | concentration in plasma (Rat [5]; 1200 h): 7650 ng/mL | concentration in plasma (Rat [5]; 3360 h): 1160 ng/mL | concentration in plasma (Rat [6]; 12 h): 9930 ng/mL | concentration in plasma (Rat [6]; 1200 h): 2790 ng/mL | concentration in plasma (Rat [7]; 1 h): 6120 ng/mL | concentration in plasma (Rat [7]; 192 h): 10600 ng/mL | concentration in plasma (Rat [7]; 2520 h): 931 ng/mL

O=S(=O)([O-])C(F)(F)C(F)(F)C(F)(F)C(F)(F)C(F)(F)C(F)(F)C(F)(F)C(F)(F)F [Perfluorooctane Sulfonate]
concentration in plasma (Rat [8]): 18500 ng/mL | concentration in plasma (Rat [9]): 2740 ng/mL | concentration in plasma (Rat [10]): 6530 ng/mL | concentration in plasma (Rat [11]): 4540 ng/mL

O=C(O)C(F)(F)C(F)(F)C(F)(F)C(F)(F)C(F)(F)C(F)(F)C(F)(F)F [Perfluorooctanoic acid]
concentration in plasma (Rat [12]; 0.5 h): 125 ng/mL | concentration in plasma (Rat [12]; 9 h): 1720 ng/mL | concentration in plasma (Rat [13]): 19.6 ng/mL | concentration in plasma (Rat [14]; 0.25 h): 145 ng/mL | concentration in plasma (Rat [14]; 6 h): 5200 ng/mL | concentration in plasma (Rat [15]): 230000 ng/mL | concentration in plasma (Rat [16]; 1 h): 29100 ng/mL | concentration in plasma (Rat [16]; 12 h): 42700 ng/mL | concentration in plasma (Rat [16]; 864 h): 3520 ng/mL | concentration in plasma (Rat [17]): 39800 ng/mL | concentration in plasma (Rat [18]): 26500 ng/mL | concentration in plasma (Rat [19]): 90300 ng/mL | concentration in plasma (Rat [20]; 0.75 h): 1140 ng/mL | concentration in plasma (Rat [20]; 12 h): 3700 ng/mL | concentration in plasma (Rat [21]; 1 h): 2210 ng/mL | concentration in plasma (Rat [21]; 24 h): 3040 ng/mL | concentration in plasma (Rat [22]; 1 h): 98600 ng/mL | concentration in plasma (Rat [22]; 12 h): 257000 ng/mL | concentration in plasma (Rat [22]; 864 h): 9370 ng/mL | concentration in plasma (Rat [23]; 6 h): 341000 ng/mL | concentration in plasma (Rat [23]; 48 h): 56700 ng/mL | concentration in plasma (Rat [24]; 0.5 min): 655 ng/mL | concentration in plasma (Rat [24]; 9 h): 2800 ng/mL | concentration in plasma (Rat [25]; 0.25 h): 23.4 ng/mL | concentration in plasma (Rat [25]; 24 h): 1100 ng/mL | concentration in plasma (Rat [26]; 0.25 h): 336000 ng/mL | concentration in plasma (Rat [26]; 9 h): 581000 ng/mL | concentration in plasma (Rat [26]; 96 h): 6670 ng/mL | concentration in plasma (Rat [27]; 0.75 h): 987 ng/mL | concentration in plasma (Rat [27]; 48 h): 64.1 ng/mL | concentration in plasma (Rat [28]; 1 h): 576000 ng/mL | concentration in plasma (Rat [28]; 12 h): 213000 ng/mL | concentration in plasma (Rat [29]; 1 h): 264 ng/mL | concentration in plasma (Rat [29]; 24 h): 778 ng/mL | concentration in plasma (Rat [30]; 0.25 h): 276000 ng/mL | concentration in plasma (Rat [30]; 6 h): 77700 ng/mL | concentration in plasma (Rat [30]; 48 h): 31.9 ng/mL | concentration in plasma (Rat [31]; 0.25 h): 17.8 ng/mL | concentration in plasma (Rat [31]; 6 h): 1930 ng/mL | concentration in plasma (Rat [32]; 0.25 h): 58900 ng/mL | concentration in plasma (Rat [32]; 12 h): 47400 ng/mL | concentration in plasma (Rat [32]; 864 h): 3040 ng/mL
